# Results: the supplement of paper PMC8728848
# Some of the results follow.
# Legend:
# Test in all cases: glycan array binding signal (z-score within array); higher = stronger binding
# Details in all cases: glycan notation: IUPAC condensed, linker removed
# [1] = target: Gal(b1-3)GlcNAc(b1-2)Man(a1-3)[Gal(b1-3)GlcNAc(b1-2)Man(a1-6)]Man(b1-4)GlcNAc(b1-4)[Fuc(a1-6)]GlcNAc
# Procedure, shortened: (§1)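 Glycan array binding is given as a within-array Z-score, which can be read as non-binding when negative. The arrays, 3228 of them, came from the Consortium for Functional Glycomics database and were retained only where the protein sequence was available. Z-scores were averaged across arrays of the same protein sequence at different concentrations or buffers and across linkers.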
# [2] = target: Gal(b1-3)GlcNAc(b1-2)Man(a1-3)[GlcNAc(b1-4)][Gal(b1-3)GlcNAc(b1-2)Man(a1-6)]Man(b1-4)GlcNAc(b1-4)GlcNAc
# Procedure, shortened: as §1
# [3] = target: Gal(b1-3)GlcNAc(b1-2)[Gal(b1-3)GlcNAc(b1-6)]Man(a1-6)[Gal(b1-3)GlcNAc(b1-2)Man(a1-3)]Man(b1-4)GlcNAc(b1-4)GlcNAc
# Procedure, shortened: as §1
# [4] = target: Gal(b1-3)GlcNAc(b1-3)Gal(b1-3)GlcNAc
# Procedure, shortened: as §1
# [5] = target: Gal(b1-3)GlcNAc(b1-3)Gal(b1-4)Glc
# Procedure, shortened: as §1
# [6] = target: Gal(b1-3)GlcNAc(b1-3)Gal(b1-4)GlcNAc
# Procedure, shortened: as §1
# [7] = target: Gal(b1-3)GlcNAc(b1-3)Gal(b1-4)GlcNAc(b1-2)Man(a1-3)[Gal(b1-3)GlcNAc(b1-3)Gal(b1-4)GlcNAc(b1-2)Man(a1-6)]Man(b1-4)GlcNAc(b1-4)GlcNAc
# Procedure, shortened: as §1
# [8] = target: Gal(b1-3)GlcNAc(b1-3)Gal(b1-4)GlcNAc(b1-2)[Gal(b1-3)GlcNAc(b1-3)Gal(b1-4)GlcNAc(b1-6)]Man(a1-6)[Gal(b1-3)GlcNAc(b1-3)Gal(b1-4)GlcNAc(b1-2)Man(a1-3)]Man(b1-4)GlcNAc(b1-4)[Fuc(a1-6)]GlcNAc
# Procedure, shortened: as §1
# [9] = target: Gal(b1-3)GlcNAc(b1-3)Gal(b1-4)GlcNAc(b1-3)Gal(b1-4)GlcNAc(b1-2)[Gal(b1-3)GlcNAc(b1-3)Gal(b1-4)GlcNAc(b1-3)Gal(b1-4)GlcNAc(b1-6)]Man(a1-6)[Gal(b1-3)GlcNAc(b1-3)Gal(b1-4)GlcNAc(b1-3)Gal(b1-4)GlcNAc(b1-2)Man(a1-3)]Man(b1-4)GlcNAc(b1-4)[Fuc(a1-6)]GlcNAc
# Procedure, shortened: as §1
# [10] = target: Gal(b1-3)GlcNAc(b1-3)Gal(b1-4)GlcNAc(b1-6)[Gal(b1-3)GlcNAc(b1-3)]Gal(b1-4)Glc
# Procedure, shortened: as §1
# [11] = target: Gal(b1-3)GlcNAc(b1-3)Gal(b1-4)[Fuc(a1-3)]GlcNAc
# Procedure, shortened: as §1
# [12] = target: Gal(b1-3)GlcNAc(b1-3)Gal(b1-4)[Fuc(a1-3)]GlcNAc(b1-6)[Gal(b1-3)GlcNAc(b1-3)]Gal(b1-4)Glc
# Procedure, shortened: as §1
# [13] = target: Gal(b1-3)GlcNAc(b1-3)GalNAc
# Procedure, shortened: as §1
# [14] = target: Gal(b1-3)GlcNAc(b1-6)Gal(b1-4)GlcNAc
# Procedure, shortened: as §1
# [15] = target: Gal(b1-3)GlcNAc(b1-6)GalNAc
# Procedure, shortened: as §1
# [16] = target: Gal(b1-3)GlcNAc(b1-6)[Gal(b1-3)]GalNAc
# Procedure, shortened: as §1
# Gal(b1-3)GlcNAc6S = target: Gal(b1-3)GlcNAc6S
# Procedure, shortened: as §1
# [17] = target: Gal(b1-3)[Fuc(a1-4)]GlcNAc
# Procedure, shortened: as §1
# [18] = target: Gal(b1-3)[Fuc(a1-4)]GlcNAc(b1-2)Man
# Procedure, shortened: as §1
# [19] = target: Gal(b1-3)[Fuc(a1-4)]GlcNAc(b1-2)Man(a1-3)[Gal(b1-3)[Fuc(a1-4)]GlcNAc(b1-2)Man(a1-6)]Man(b1-4)GlcNAc(b1-4)[Fuc(a1-6)]GlcNAc
# Procedure, shortened: as §1
# [20] = target: Gal(b1-3)[Fuc(a1-4)]GlcNAc(b1-3)Gal(b1-3)[Fuc(a1-4)]GlcNAc
# Procedure, shortened: as §1
# [21] = target: Gal(b1-3)[Fuc(a1-4)]GlcNAc(b1-3)Gal(b1-4)[Fuc(a1-3)]GlcNAc
# Procedure, shortened: as §1
# [22] = target: Gal(b1-3)[Fuc(a1-4)]GlcNAc(b1-6)GalNAc
# Procedure, shortened: as §1
# [23] = target: Gal(b1-3)[GlcNAc(b1-6)]GalNAc
# Procedure, shortened: as §1
# [24] = target: Gal(b1-3)[Neu5Ac(a2-6)]GalNAc
# Procedure, shortened: as §1
# [25] = target: Gal(b1-3)[Neu5Ac(a2-6)]GlcNAc(b1-4)Gal(b1-4)Glc
# Procedure, shortened: as §1
# [26] = target: Gal(b1-3)[Neu5Ac(b2-6)]GalNAc
# Procedure, shortened: as §1
# Gal(b1-4)Gal = target: Gal(b1-4)Gal
# Procedure, shortened: as §1
# [27] = target: Gal(b1-4)GalNAc(a1-3)[Fuc(a1-2)]Gal(b1-4)GlcNAc
# Procedure, shortened: as §1
# [28] = target: Gal(b1-4)GalNAc(b1-3)[Fuc(a1-2)]Gal(b1-4)GlcNAc
# Procedure, shortened: as §1
# Gal(b1-4)Glc = target: Gal(b1-4)Glc
# Procedure, shortened: as §1
# Gal(b1-4)Glc6S = target: Gal(b1-4)Glc6S
# Procedure, shortened: as §1
# Gal(b1-4)GlcNAc = target: Gal(b1-4)GlcNAc
# Procedure, shortened: as §1
# [29] = target: Gal(b1-4)GlcNAc(a1-6)Gal(b1-4)GlcNAc
# Procedure, shortened: as §1
# Gal(b1-4)GlcNAc(b1-2)Man = target: Gal(b1-4)GlcNAc(b1-2)Man
# Procedure, shortened: as §1
# [30] = target: Gal(b1-4)GlcNAc(b1-2)Man(a1-3)Man(b1-4)GlcNAc(b1-4)GlcNAc
# Procedure, shortened: as §1
# [31] = target: Gal(b1-4)GlcNAc(b1-2)Man(a1-3)[Gal(b1-4)GlcNAc(b1-2)Man(a1-6)]Man(b1-4)GlcNAc(b1-4)GlcNAc
# Procedure, shortened: as §1
# [32] = target: Gal(b1-4)GlcNAc(b1-2)Man(a1-3)[Gal(b1-4)GlcNAc(b1-2)Man(a1-6)]Man(b1-4)GlcNAc(b1-4)[Fuc(a1-6)]GlcNAc
# Procedure, shortened: as §1
# [33] = target: Gal(b1-4)GlcNAc(b1-2)Man(a1-3)[Gal(b1-4)GlcNAc(b1-2)Man(a1-6)][Gal(b1-4)GlcNAc(b1-4)]Man(b1-4)GlcNAc(b1-4)[Fuc(a1-6)]GlcNAc
# Procedure, shortened: as §1
# [34] = target: Gal(b1-4)GlcNAc(b1-2)Man(a1-3)[Gal(b1-4)GlcNAc(b1-2)Man(a1-6)][GlcNAc(b1-4)]Man(b1-4)GlcNAc(b1-4)[Fuc(a1-6)]GlcNAc
# Procedure, shortened: as §1
# [35] = target: Gal(b1-4)GlcNAc(b1-2)Man(a1-3)[GlcNAc(b1-2)Man(a1-6)]Man(b1-4)GlcNAc(b1-4)GlcNAc
# Procedure, shortened: as §1
# [36] = target: Gal(b1-4)GlcNAc(b1-2)Man(a1-3)[GlcNAc(b1-4)][Gal(b1-4)GlcNAc(b1-2)Man(a1-6)]Man(b1-4)GlcNAc(b1-4)GlcNAc
# Procedure, shortened: as §1
# [37] = target: Gal(b1-4)GlcNAc(b1-2)Man(a1-3)[Man(a1-6)]Man(b1-4)GlcNAc(b1-4)GlcNAc
# Procedure, shortened: as §1
# [38] = target: Gal(b1-4)GlcNAc(b1-2)Man(a1-6)Man(b1-4)GlcNAc(b1-4)GlcNAc
# Procedure, shortened: as §1
# [39] = target: Gal(b1-4)GlcNAc(b1-2)Man(a1-6)[GlcNAc(b1-2)Man(a1-3)]Man(b1-4)GlcNAc(b1-4)GlcNAc
# Procedure, shortened: as §1
binder,measurement,setting,value
Cohesin-hMARCO (Homo sapiens) (protein) LDDLDAVRIKVDTVNAKPGDTVRIPVRFSGIPSKGIANCDFVYSYDPNVLEIIEIEPGDIIVDPNPDKSFDTAVYPDRKIIVFLFAEDSGTGAYAITKDGVFATIVAKVKEGAPNGLSVIKFVEVGGFANNDLVEQKTQFFDGGANVGDTTEPATPTTPVTTPTTTDDLDAASVRIVGSSNRGRAEVYYSGTWGTICDDEWQNSDAIVFCRMLGYSKGRALYKVGAGTGQIWLDNVQCRGTESTLWSCTKNSWGHHDCSHEEDAGVECSVHHHHHH,glycan array binding signal (z-score),[1],-0.443
same,glycan array binding signal (z-score),[2],-0.377
same,glycan array binding signal (z-score),[3],-0.44
same,glycan array binding signal (z-score),[4],-0.434
same,glycan array binding signal (z-score),[5],-0.566
same,glycan array binding signal (z-score),[6],-0.396
same,glycan array binding signal (z-score),[7],0.015
same,glycan array binding signal (z-score),[8],-0.029
same,glycan array binding signal (z-score),[9],-0.216
same,glycan array binding signal (z-score),[10],-0.529
same,glycan array binding signal (z-score),[11],-0.35
same,glycan array binding signal (z-score),[12],-0.502
same,glycan array binding signal (z-score),[13],-0.344
same,glycan array binding signal (z-score),[14],-0.239
same,glycan array binding signal (z-score),[15],1.7
same,glycan array binding signal (z-score),[16],-0.319
same,glycan array binding signal (z-score),Gal(b1-3)GlcNAc6S,-0.327
same,glycan array binding signal (z-score),[17],0.355
same,glycan array binding signal (z-score),[18],-0.403
same,glycan array binding signal (z-score),[19],0.041
same,glycan array binding signal (z-score),[20],5.33
same,glycan array binding signal (z-score),[21],-0.252
same,glycan array binding signal (z-score),[22],-0.154
same,glycan array binding signal (z-score),[23],-0.335
same,glycan array binding signal (z-score),[24],-0.392
same,glycan array binding signal (z-score),[25],-0.257
same,glycan array binding signal (z-score),[26],-0.305
same,glycan array binding signal (z-score),Gal(b1-4)Gal,0.028
same,glycan array binding signal (z-score),[27],-0.348
same,glycan array binding signal (z-score),[28],-0.311
same,glycan array binding signal (z-score),Gal(b1-4)Glc,-0.326
same,glycan array binding signal (z-score),Gal(b1-4)Glc6S,-0.057
same,glycan array binding signal (z-score),Gal(b1-4)GlcNAc,-0.403
same,glycan array binding signal (z-score),[29],0.044
same,glycan array binding signal (z-score),Gal(b1-4)GlcNAc(b1-2)Man,-0.48
same,glycan array binding signal (z-score),[30],-0.089
same,glycan array binding signal (z-score),[31],-0.401
same,glycan array binding signal (z-score),[32],-0.471
same,glycan array binding signal (z-score),[33],-0.013
same,glycan array binding signal (z-score),[34],-0.601
same,glycan array binding signal (z-score),[35],-0.02
same,glycan array binding signal (z-score),[36],-0.286
same,glycan array binding signal (z-score),[37],-0.326
same,glycan array binding signal (z-score),[38],0.049
same,glycan array binding signal (z-score),[39],-0.317
